Test results published in PubChem BioAssay AID504845 (National Center for Advancing Translational Sciences (NCATS), 2011).
Hit rate of the full screen: of about 390,000 compounds, about 150 (0.038%) were called active. Inconclusive results, whose numbers are uncertain, are shown with a selection of clear calls. Calls follow the shape of the dose curve; as a rule, active = well fitted inhibition curve with a large enough effect; inconclusive = small, poorly fitted or top-dose-only effect; inactive = no such curve, though single readings can be large or run the other way. Potencies beside an inconclusive call are fits to weak or partial responses and may not hold up.

molecular target: Regulator of G-protein signaling 4 (Homo sapiens) (UniProt P49798); assay: Inhibitors of Regulator of G Protein Signaling (RGS) 4: qHTS; conditions: Transcreener GDP fluorescence polarization, RGS4-accelerated GTP hydrolysis; series mostly up to 114 µM; also: nearly all actives have a fitted effect of over 75% in size
In short: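 MLSMR compounds (23 nl, pin-transferred) preincubated 10 min at room temperature with a 500nM (2x) first reagent, then RGS4 at 900nM (2x) plus Transcreener GDP mix added; fluorescence polarization (620/688 nm) read before and after 90 min at 30 °C.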
% is scaled to controls: 0 for no effect and ±100 for the full control effect; potency is read from the fitted curve at half-maximal effect; tags tell the direction and shape of the fitted curve.

Sequence of UniProt P49798 (P49798 whole entry, looked up): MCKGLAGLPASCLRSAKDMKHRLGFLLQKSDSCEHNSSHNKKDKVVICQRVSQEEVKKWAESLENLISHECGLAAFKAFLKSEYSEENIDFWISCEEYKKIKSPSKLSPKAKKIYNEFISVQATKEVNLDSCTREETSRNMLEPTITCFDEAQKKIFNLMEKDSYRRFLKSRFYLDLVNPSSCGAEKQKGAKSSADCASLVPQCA

Compound	Potency	activity change, negative = inhibition
CCOc1ccc(-n2cc(-c3ccccc3)c3c(NCc4ccccc4)ncnc32)cc1	inactive	
O=[N+]([O-])c1ccc(O)c(NC(=S)Nc2ccccc2)c1	inconclusive: 11.2 µM [inhibitor, full curve, poor fit]	
O=C(O)C1Nc2ccccc2C2C=CCC12 (stereo unspecified)	inconclusive: 44.7 µM [inhibitor, partial curve, poor fit]	
COCC(C)N1CCC(n2nccc2NC(=O)c2ccccc2Cl)CC1 (stereo unspecified)	inactive	
COc1ccc([N+](=O)[O-])c(S(=O)(=O)c2ccc(Cl)cc2)n1	inconclusive: 50.1 µM [inhibitor, partial curve, poor fit]	
C/C=C\C=C\C(=O)N1CC2(CC(c3cccc(NC(=O)CC)c3)=NO2)C[C@H]1C(N)=O (stereo partly specified)	inconclusive: 44.7 µM [inhibitor, partial curve, poor fit]	
COc1ccc(C(=O)/C=C2\C(=O)Nc3ccc(Br)cc32)cc1	inconclusive: 31.6 µM [inhibitor, full curve, poor fit]	
Cc1cccc(C)c1NS(=O)(=O)c1ccc(NS(=O)(=O)c2ccc3c(c2)OCCO3)cc1	inconclusive: 89.1 µM [inhibitor, single point]	
COc1cccc(C2Nc3ccccc3NC3=C2C(=O)CC(C)(C)C3)c1OC (stereo unspecified)	inconclusive: 79.4 µM [inhibitor, single point]	
N#Cc1ccc(CSc2nnc(NC(=O)c3ccc4ncsc4c3)s2)cc1	inconclusive: 79.4 µM [inhibitor, partial curve, poor fit]	
CCC(NC(=O)Nc1cc(OC)ccc1OC)c1c(-n2cccc2)sc2c1CCN(CC)C2 (stereo unspecified)	inactive	
CSc1ccccc1NC(=O)c1cc2ncc(Br)cn2n1	inconclusive: 89.1 µM [inhibitor, single point]	
c1ccc(Cc2nnc(N3CCCCC3)c3ccccc23)cc1	inconclusive: 50.1 µM [inhibitor, partial curve, poor fit]	
CC(=O)Nc1ccc(NC(=O)CCn2c(=S)oc3ccccc32)cc1	inactive	
CSC(=NCc1ccc(F)cc1)NS(=O)(=O)c1cccs1	inconclusive: 89.1 µM [inhibitor, single point]	
CCc1nn(CC(=O)N2CCN(c3ccc(OC)cc3)CC2)c(=O)c2cc3occc3n12		inactive: 12.4% [at 11.4 µM]
COc1ccccc1CNC(=O)C(C)Sc1ccc(C)cc1 (stereo unspecified)	inconclusive: 39.8 µM [inhibitor, partial curve, poor fit]	
CCCCN(CC)S(=O)(=O)c1ccc(C(=O)Nc2nnc(CSC)o2)cc1	inactive	
Cc1cccc(NC(=O)c2sc3nc4c(c(-c5cccs5)c3c2N)CN(C)CC4)c1	inconclusive: 50.1 µM [inhibitor, partial curve, poor fit]	
O=C(NNc1ccc(C(F)(F)F)cc1[N+](=O)[O-])c1ccc(NS(=O)(=O)c2ccc(F)cc2)cc1	inconclusive: 50.1 µM [inhibitor, partial curve, poor fit]	
Cc1nn(-c2ccc(C(=O)Nc3nnc(C4CC4)s3)cc2)c(C)c1Cl	inconclusive: 89.1 µM [inhibitor, single point]	
Cc1ccc(/C=C2/NC(=O)N(Cc3ccccc3)C2=O)o1	inconclusive: 39.8 µM [inhibitor, partial curve, poor fit]	

Compound	Potency	activity change, negative = inhibition
CC#CCN1C(=O)N[C@@H](c2ccccc2)C(C(=O)OC)=C1C	inconclusive: 70.8 µM [inhibitor, partial curve, poor fit]	
COc1ccc(-c2ccc(C(=S)N3CCN(C(C)=O)CC3)o2)cc1	inconclusive: 28.2 µM [inhibitor, full curve, poor fit]	
CCCNC(=O)C(CC)n1nc(CC)n2c(cc3oc(C)cc32)c1=O (stereo unspecified)	inactive	
COc1ccccc1NS(=O)(=O)c1ccc(C(N)=O)cc1	inconclusive: 70.8 µM [inhibitor, partial curve, poor fit]	
CCN(CC)C(CNC(=O)CSc1nnnn1-c1c(C)cccc1C)c1ccco1 (stereo unspecified)	inconclusive: 100 µM [inhibitor, single point]	
C#CCOCCOCCOCCNc1nc(N2CCN(C(=O)CCCCCCCCCCNC(=O)[C@H](CCCCN)n3cc(CCO)nn3)CC2)nc(N2CCN(C(=O)CCCCCCCCCCNC(=O)[C@H](CCCCN)n3cc(CCO)nn3)CC2)n1	inconclusive: 20 µM [inhibitor, full curve, poor fit]	
O=C(N/N=C/c1cccc2cccnc12)c1ccccc1O	inactive	
CCOC(=O)c1[nH]c(C)c(CCC(=O)NCc2ccccc2C)c1C	inactive	
CCn1cc(S(=O)(=O)c2ccc(C)cc2)c(=O)c2cc(F)c(N3CCCCCC3)cc21	inactive	
CCOC(=O)c1c(C)nc2sc3c(=O)n(-c4ccc(C(C)=O)cc4)cnc3c2c1-c1ccc(OC)cc1	inactive	
CC(C)(C)c1ccc(S(=O)(=O)N2CCN(CCC#N)CC2)cc1	inactive	
CC/C(=N\NC(=O)CCC(=O)NCc1ccccc1)c1ccc(O)cc1	inactive	
FC(F)(F)c1cnc(NNC(=S)Nc2ccc(Cl)cc2)c(Cl)c1	inconclusive: 50.1 µM [inhibitor, partial curve, poor fit]	
COc1ccc(N(CN2C(=O)C3C4C=CC(C4)C3C2=O)C(=O)c2ccco2)cc1 (stereo unspecified)	inconclusive: 100 µM [inhibitor, single point]	
Cc1cc(C)c(C)c(S(=O)(=O)Nc2ccc(C(=O)N3CCCC3)cc2)c1C	inconclusive: 89.1 µM [inhibitor, single point]	
CNC(=S)/N=C/NOCc1ccc(Cl)cc1Cl	inconclusive: 89.1 µM [inhibitor, single point]	
O=C(CN(c1ccccc1)S(=O)(=O)c1ccccc1[N+](=O)[O-])Nc1ccccc1C(=O)N1CCOCC1	inconclusive: 89.1 µM [inhibitor, partial curve, poor fit]	
COc1cc(NC(=O)c2cc(-c3cccs3)on2)c(OC)cc1Cl	inactive	
COc1ccc(/C(N)=N/OC(=O)c2ccco2)cc1OC	inconclusive: 50.1 µM [inhibitor, partial curve, poor fit]	
CC[C@]12c3[nH]c4cc(-c5ccco5)ccc4c3CCN1C(=O)[C@@H](CC(=O)NCCC1=CCCCC1)C[C@@H]2C(=O)N1CCN(C(=O)C2CC2)CC1	inconclusive: 50.1 µM [inhibitor, partial curve, poor fit]	
COc1ccc(C(=O)NCCSc2ccccc2)cc1OC	inconclusive: 17.8 µM [inhibitor, full curve, poor fit]	
COc1ccc(NC(=O)/C(C#N)=C/c2ccc(Sc3nncn3C)c([N+](=O)[O-])c2)cc1	inconclusive: 79.4 µM [inhibitor, partial curve, poor fit]	

Compound	Potency	activity change, negative = inhibition
CCc1ccc(CNc2ccc(N3CCN(C(C)=O)CC3)cc2)cc1	inconclusive: 89.1 µM [inhibitor, single point]	
O=C(Nc1ccc(NC(=O)N2CCN(c3ccccc3O)CC2)cc1)N1CCN(c2ccccc2O)CC1	inactive	
COC(=O)CCN(C(C)=O)c1ccc(N)cc1	inconclusive: 89.1 µM [inhibitor, partial curve, poor fit]	
CCOc1cc(/C=N/n2cnnc2)ccc1OC(=O)c1cccc([N+](=O)[O-])c1	inconclusive: 44.7 µM [inhibitor, partial curve, poor fit]	
NNc1cccc(C=Cc2ccccc2)cc1=O	inconclusive: 100 µM [inhibitor, single point]	
Cc1nc(SCC(=O)Nc2ccccn2)n[nH]1	inactive	
Cc1cccc(/C=C(\C#N)C(=O)Nc2ccccn2)c1	inactive	
Cc1ccc(Nc2nnc(C)c(=O)[nH]2)cc1	inconclusive: 56.2 µM [inhibitor, partial curve, poor fit]	
CCN(CC)CCNS(=O)(=O)c1ccc(C(=O)NN)cc1	inconclusive: 89.1 µM [inhibitor, partial curve, poor fit]	
COc1ccc(NC(=O)c2cc(-c3ccco3)nc3ccccc23)cn1	inconclusive: 44.7 µM [inhibitor, partial curve, poor fit]	
COc1cc(/C=C(\C#N)C(=O)Nc2ccc(C(=O)O)cc2)ccc1OC(=O)c1cccc(F)c1	inconclusive: 79.4 µM [inhibitor, single point]	
Cc1ccc(CNC(=O)C2CCC(=O)N2CCc2ccccc2)cc1 (stereo unspecified)	inactive	
Fc1ccccc1CSc1ncnc2sc3c(c12)CCCC3	inconclusive: 79.4 µM [inhibitor, partial curve, poor fit]	
CC1C(=O)C(C)C(c2ccc(Br)cc2)NC1c1ccc(Br)cc1 (stereo unspecified)	inactive	
Cc1cc(C)cc(OCC(=O)Nc2ccccc2N2CCCCC2)c1	inactive	
Cc1cnc(=O)[nH]c1SCC(=O)c1ccc(F)cc1	inconclusive: 79.4 µM [inhibitor, partial curve, poor fit]	
CC(C)CC(=O)Nc1nc(=S)ss1	inconclusive: 31.6 µM [inhibitor, full curve, poor fit]	
CCCCN(C(=O)c1ccccc1F)c1c(N)n(CCC)c(=O)[nH]c1=O	inactive	
Cc1ccc(CCNC(=O)C2CCN(c3nnc(-n4cccc4CNc4ccc(C)cc4)s3)CC2)cc1	inactive	
O=C(CN1C(=O)CC(c2ccccc2)Sc2ccccc21)Nc1cccc(Cl)c1 (stereo unspecified)	inactive	
Cc1ccoc1C(=O)N1CCCCC1C(=O)O (stereo unspecified)	inconclusive: 35.5 µM [inhibitor, partial curve, poor fit]	
Cc1ccc(CN(C)C(=O)c2ccccc2Oc2ccccc2)o1	inconclusive: 79.4 µM [inhibitor, partial curve, poor fit]	
